According to the BET-seq Pho4 binding data (Le et al. 2018):
The other results are listed elsewhere or left out. The energies were worked out here from pooled read counts, against the library average; single values are noisy.

target: T1, Pho4 (S. cerevisiae) (UniProt P07270); experiment: relative binding free energy (BET-seq); higher = weaker binding; conditions: reference: library average
T1 sequence: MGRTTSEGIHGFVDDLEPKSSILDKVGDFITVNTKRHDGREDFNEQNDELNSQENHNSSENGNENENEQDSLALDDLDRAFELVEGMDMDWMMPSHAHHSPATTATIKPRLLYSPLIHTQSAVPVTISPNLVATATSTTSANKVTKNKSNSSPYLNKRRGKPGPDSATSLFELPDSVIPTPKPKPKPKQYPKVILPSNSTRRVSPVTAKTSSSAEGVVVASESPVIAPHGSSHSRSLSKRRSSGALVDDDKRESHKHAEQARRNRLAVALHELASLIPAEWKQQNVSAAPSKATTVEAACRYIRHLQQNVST

Relative binding free energy, 0.12 kcal/mol:
ATTATCACGTGTAGGC

Relative binding free energy, 0.13 kcal/mol:
AGCTACACGTGTGGAG
TGAATCACGTGTGTGA
AGATACACGTGTTTTT
TTGGCCACGTGAGGGC
ATACTCACGTGTGGGG
TGGGTCACGTGACGAG

Relative binding free energy, -0.08 kcal/mol:
AGCATCACGTGGGTTA
TTGTCCACGTGGGTTG
TATAGCACGTGGAGTA
GTGTCCACGTGCGTTG

Relative binding free energy, -0.26 kcal/mol:
GGAGGCACGTGCGGCG
ATAAACACGTGGGGTA

Relative binding free energy, -0.18 kcal/mol:
TCTTGCACGTGGGTCA
AGCAACACGTGGGTGG
GGTGGCACGTGGTGCC

Relative binding free energy, 0.17 kcal/mol:
GGGACCACGTGAGAGG
ATGGTCACGTGTGTAC
GATATCACGTGTTTGG
TTGGTCACGTGTGCGC
TTTACCACGTGATTAG
GTCTGCACGTGTAAGT
GTTGGCACGTGAATTT

Relative binding free energy, -0.11 kcal/mol:
CAGTGCACGTGGCTGG
TGGTGCACGTGCGGAC

Relative binding free energy, 0.08 kcal/mol:
CATTGCACGTGTAAGG
ACGTGCACGTGAGGGG
ATGGTCACGTGGGCGG
TTGGACACGTGTCTGT
GTTTGCACGTGTTCAA
AAGTACACGTGTTTTG
AAGGGCACGTGAAAGT

Relative binding free energy, 0.37 kcal/mol:
GGATTCACGTGGTTGG

Relative binding free energy, -0.15 kcal/mol:
AGTGCCACGTGGTGGG
AGGGGCACGTGCCGTA

Relative binding free energy, -0.12 kcal/mol:
ATATGCACGTGTCAGG
AGGGGCACGTGTAGCT
TTAATCACGTGGGGTA
ATGAGCACGTGTTTGT

Relative binding free energy, 0.07 kcal/mol:
GTTTGCACGTGGTGAA
AGATGCACGTGTGATT
ACGGACACGTGTTGGG
CTTTGCACGTGATGCG
GTTGACACGTGGTATC
TAGTCCACGTGTTGAG
TGGTGCACGTGTGGAG

Relative binding free energy, 0.22 kcal/mol:
ATTCTCACGTGGGTTT
GGGTTCACGTGCAGGC

Relative binding free energy, 0.02 kcal/mol:
CGTTGCACGTGCGAGT
AATGTCACGTGGTACG
GGGTCCACGTGCGGTG
AAAAACACGTGTTTTG
AGTATCACGTGGGCTA
CGTAACACGTGGTATG

Relative binding free energy, -0.01 kcal/mol:
AATTGCACGTGGTAAT
TTAGGCACGTGACTGA
TTTTGCACGTGGTTGT

Relative binding free energy, -0.05 kcal/mol:
TAGGACACGTGTATAT
CGTTACACGTGGCTGT
AGTGCCACGTGGATTG
CTTATCACGTGTTTGT
AATGGCACGTGATAGG

Relative binding free energy, -0.13 kcal/mol:
TGGGCCACGTGGAGGT

Relative binding free energy, -0.19 kcal/mol:
TGGGCCACGTGCGTGC
TGTCGCACGTGGTTAA
TGAGGCACGTGCAAGG
TCGAGCACGTGGGGGC

Relative binding free energy, -0.17 kcal/mol:
GCGGCCACGTGGGGTG
GTGTGCACGTGGACGA

Relative binding free energy, 0.18 kcal/mol:
GTAGACACGTGAGAGT
TTAAGCACGTGAAGAG
GAAGTCACGTGTTTAG
CTGGTCACGTGCGGAA
AGTATCACGTGATTAT
TCCTTCACGTGGTTGT
GGAAACACGTGTCTGT
ATCGTCACGTGATATG

Relative binding free energy, 0.42 kcal/mol:
GTTTTCACGTGAATGG

Relative binding free energy, 0.04 kcal/mol:
TTGTCCACGTGTTGCA
TTCGACACGTGGATGT
TGGGTCACGTGCGTAC
AGTGCCACGTGAAGGT

Relative binding free energy, -0.31 kcal/mol:
TATAACACGTGGGGGT

Relative binding free energy, 0.31 kcal/mol:
TTAGTCACGTGAATCT
GTGTTCACGTGGGAGA

Relative binding free energy, 0.05 kcal/mol:
ATGAGCACGTGAGGCT
AGTGTCACGTGGTTTG
TATATCACGTGGGGCA
GACCGCACGTGTTGTG
GAAAGCACGTGTTAGT
ATTATCACGTGGGAGT

Relative binding free energy, 0.25 kcal/mol:
AGACTCACGTGTTTGG
TGATTCACGTGTTTTG

Relative binding free energy, 0.09 kcal/mol:
GGGGCCACGTGATTGG
TCAGGCACGTGTCGTT
ACAGTCACGTGGTGGT

Relative binding free energy, -0.24 kcal/mol:
TGTAGCACGTGGGCGG
TTAGGCACGTGGCGTG

Relative binding free energy, 0.23 kcal/mol:
GTTCTCACGTGTGCTG
TCGGTCACGTGTGTAC
GAGTGCACGTGAGTAA
TTAGTCACGTGATGAT
TGCAGCACGTGAGGTT
TAGTTCACGTGGAGGG
TGGTGCACGTGAGTGG

Relative binding free energy, -0.21 kcal/mol:
TATAGCACGTGTTTAT

Relative binding free energy, -0.07 kcal/mol:
TAATACACGTGGTATT
CTTGGCACGTGTGGCT
TGTAGCACGTGTCGTG
GTGGGCACGTGGAGTA
ACGATCACGTGGGTGT

Relative binding free energy, -0.16 kcal/mol:
AGGTGCACGTGCTGGA

Relative binding free energy, -0.02 kcal/mol:
CGGTGCACGTGTCGTG
GTACGCACGTGATTGG
CGGGCCACGTGTGGGA
TTAAGCACGTGAGGGT
GGCGACACGTGGAGGA

Relative binding free energy, -0.03 kcal/mol:
TTTAGCACGTGTTACG
AGCGTCACGTGGTGTT
GGTCGCACGTGGAGGC
ATGGGCACGTGTGGGC
CGCAACACGTGGTGGG

Relative binding free energy, 0.3 kcal/mol:
ACAATCACGTGTGTTG
TGTGTCACGTGAGGCG
CAGCTCACGTGGTGTT
ATGGTCACGTGAGCTG

Relative binding free energy, 0.15 kcal/mol:
TTTAACACGTGTAAGA
TAAATCACGTGTTTTC
ACAGGCACGTGAGTTA
TCTTGCACGTGTGTGG
GGCTGCACGTGTGGAT
GTGGTCACGTGTAGCT

Relative binding free energy, 0.4 kcal/mol:
AAGATCACGTGAAGTT

Relative binding free energy, -0.09 kcal/mol:
TGACGCACGTGTTTGA
GTGTGCACGTGGGATA
TATTGCACGTGTCGAG
TTGTGCACGTGGGTAA
AAAGGCACGTGGCGGC

Relative binding free energy, 0.2 kcal/mol:
GGGTTCACGTGTACTT

Relative binding free energy, 0.34 kcal/mol:
AATTTCACGTGTGTGG
GCTGTCACGTGAAGGT

Relative binding free energy, 0.01 kcal/mol:
CCGGTCACGTGGTGGT
GGATACACGTGGCGGT
CCGGTCACGTGGTGTT

Relative binding free energy, 0.35 kcal/mol:
TATATCACGTGAATAG

Relative binding free energy, 0.33 kcal/mol:
GTGTTCACGTGGTAAG

Relative binding free energy, 0.06 kcal/mol:
TTGGACACGTGTATGA
CTAATCACGTGGGGTA
GGGACCACGTGCTGGT
CTTGGCACGTGACGGG
GAGCTCACGTGGGCGG

Relative binding free energy, 0.29 kcal/mol:
CATTTCACGTGTGGTC

Relative binding free energy, 0 kcal/mol:
CAAGGCACGTGTAGGG
TGGCGCACGTGCTGGA
CTGAACACGTGTGGTT
ATAATCACGTGGTAGT
TCAAACACGTGTTGGT
CGTGACACGTGGAGAG

Relative binding free energy, -0.14 kcal/mol:
CAGGGCACGTGGCGTA
TGGCACACGTGGGCGT

Relative binding free energy, 0.03 kcal/mol:
GGTGTCACGTGCGGTC
TGGAACACGTGTTGTT
TGTAGCACGTGAGATA
GTGTGCACGTGTTAAG
GTTGTCACGTGTCAGA
GGTGTCACGTGCGTGC
AGGTGCACGTGTAGTC
TAGTACACGTGGTAAG
ATAGTCACGTGGTGTC
GTCGCCACGTGTGTTT

Relative binding free energy, 0.21 kcal/mol:
GGATTCACGTGCCGTG
AATTTCACGTGCGTGG

Relative binding free energy, -0.04 kcal/mol:
GGTGGCACGTGGGGTT
TTGTTCACGTGGGTCC
TCGTACACGTGGAGTG
TTTTGCACGTGCTTCT
AGTGCCACGTGATAGT

Relative binding free energy, 0.19 kcal/mol:
GGGAACACGTGATGGA
ATGGTCACGTGTGAAG
GAGTCCACGTGTAGTT
GTGTCCACGTGTGAAG
GGATACACGTGTGTTT

Relative binding free energy, -0.2 kcal/mol:
TAATGCACGTGGTATA
TGCTGCACGTGGGGTT

Relative binding free energy, 0.24 kcal/mol:
GGTTACACGTGTTAGG
TTTTGCACGTGAGTCT
GTCGTCACGTGAGTGT
TGGCTCACGTGAGCGT
TATTTCACGTGGTAAC
GAGTGCACGTGAATGG

Relative binding free energy, 0.14 kcal/mol:
CAGGTCACGTGTCTGG
TGGGTCACGTGCGCTC
ATGTTCACGTGCGTGT
GAGAACACGTGTTGGT
TAGATCACGTGTGTGT
CAGTACACGTGTTAGG
GAGTGCACGTGAAAGG

Relative binding free energy, 0.36 kcal/mol:
GTGCTCACGTGTACGT

Relative binding free energy, 0.11 kcal/mol:
AGATCCACGTGTGGGA
TATGGCACGTGTGACG
GATAGCACGTGGAATG
TATAACACGTGAGTGT
TCTTACACGTGATGTG
GTAGGCACGTGACTGA

Relative binding free energy, -0.06 kcal/mol:
GCAGGCACGTGTTGTG
CAGAGCACGTGTTAGG

Relative binding free energy, 0.26 kcal/mol:
GGATTCACGTGGGTAG
AGGTTCACGTGTACAG
GTTAACACGTGTAGAG

Relative binding free energy, 0.32 kcal/mol:
GTTTACACGTGAACGG

Relative binding free energy, -0.1 kcal/mol:
GCAGGCACGTGTGTAG

Relative binding free energy, -0.23 kcal/mol:
GCGTGCACGTGGGGGT
AAGGGCACGTGGCAGG

Relative binding free energy, 0.28 kcal/mol:
GAGTTCACGTGTTGAT
TTCTTCACGTGGCAGG
GGTTACACGTGATGGT
ATGAACACGTGAGGGT

Relative binding free energy, -0.25 kcal/mol:
ATGTGCACGTGGGCCG

Relative binding free energy, 0.27 kcal/mol:
ATAGTCACGTGATGGG
GGGCTCACGTGAGCGG
ATATACACGTGAGGGT
GATTACACGTGGTTGC

Relative binding free energy, 0.1 kcal/mol:
ATTGGCACGTGATGGG
GGTATCACGTGGCAAG
TGTTACACGTGTTGGT
TCTGTCACGTGTAGTT
AGTTCCACGTGGGAAG
GTGGTCACGTGCTTCT
GTTGGCACGTGTGAAG

Relative binding free energy, 0.47 kcal/mol:
CATTTCACGTGAGGAT
